# Targets with the largest changes are over-represented here; the source holds about 21,000 in all.
# Compound: CC1Cc2ccccc2N1C(=O)C1CCCN(C1)C(=O)CCl (mixture of isomers) [TRIM25 ligand 11 (diastereomer mixture)]
# Assay: probe-labelled cysteine peptide fold change vs DMSO (competition) (log2 fold change); higher = less target engagement (more negative = stronger competition)
# Details: THP-1, incubation time: 4 h
# 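Further: competitive chemoproteomic profiling in live THP-1 cells with an iodoacetamide desthiobiotin (IA-DTB) probe, comparing probe-labelled peptide intensities in compound-treated cells against DMSO-treated controls.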
# Chain of UniProt Q12962 (Q12962 whole entry): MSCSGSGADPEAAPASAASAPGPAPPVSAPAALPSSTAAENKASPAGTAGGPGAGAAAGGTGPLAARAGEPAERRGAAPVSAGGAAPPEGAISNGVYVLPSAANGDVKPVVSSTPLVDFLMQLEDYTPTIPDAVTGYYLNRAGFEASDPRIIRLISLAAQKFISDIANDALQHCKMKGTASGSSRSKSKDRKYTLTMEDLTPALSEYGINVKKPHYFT
# Chain of UniProt Q14849 (Q14849 whole entry, looked up): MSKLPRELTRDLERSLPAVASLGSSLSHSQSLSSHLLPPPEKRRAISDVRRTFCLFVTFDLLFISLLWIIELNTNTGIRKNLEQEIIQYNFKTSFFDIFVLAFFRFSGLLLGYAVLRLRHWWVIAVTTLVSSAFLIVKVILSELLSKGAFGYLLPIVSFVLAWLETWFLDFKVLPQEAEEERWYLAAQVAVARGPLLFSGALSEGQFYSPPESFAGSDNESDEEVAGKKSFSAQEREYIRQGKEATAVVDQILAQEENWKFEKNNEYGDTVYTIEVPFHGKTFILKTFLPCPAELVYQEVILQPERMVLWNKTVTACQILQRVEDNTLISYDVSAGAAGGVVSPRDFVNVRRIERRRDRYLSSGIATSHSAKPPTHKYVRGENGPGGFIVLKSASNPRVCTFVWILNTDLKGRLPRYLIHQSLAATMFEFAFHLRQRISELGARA
# Chain of UniProt P29401 (P29401 whole entry, looked up): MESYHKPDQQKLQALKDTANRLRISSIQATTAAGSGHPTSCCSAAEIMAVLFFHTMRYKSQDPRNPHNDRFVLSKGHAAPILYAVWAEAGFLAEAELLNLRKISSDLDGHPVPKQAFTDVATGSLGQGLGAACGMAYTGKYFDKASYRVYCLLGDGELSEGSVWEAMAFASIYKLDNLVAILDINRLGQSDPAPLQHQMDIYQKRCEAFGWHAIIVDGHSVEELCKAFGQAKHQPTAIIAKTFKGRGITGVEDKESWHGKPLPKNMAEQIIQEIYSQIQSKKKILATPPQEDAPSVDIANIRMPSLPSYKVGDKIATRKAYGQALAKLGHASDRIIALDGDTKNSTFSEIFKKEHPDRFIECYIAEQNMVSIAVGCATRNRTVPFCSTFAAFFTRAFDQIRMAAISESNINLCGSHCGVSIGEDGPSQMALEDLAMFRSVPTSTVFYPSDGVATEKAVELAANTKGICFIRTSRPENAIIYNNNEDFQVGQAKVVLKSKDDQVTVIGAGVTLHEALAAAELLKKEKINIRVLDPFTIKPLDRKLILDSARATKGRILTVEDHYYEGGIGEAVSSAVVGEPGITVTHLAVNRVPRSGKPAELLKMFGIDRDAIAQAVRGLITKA
# Chain of UniProt P37802 (P37802 whole entry, looked up): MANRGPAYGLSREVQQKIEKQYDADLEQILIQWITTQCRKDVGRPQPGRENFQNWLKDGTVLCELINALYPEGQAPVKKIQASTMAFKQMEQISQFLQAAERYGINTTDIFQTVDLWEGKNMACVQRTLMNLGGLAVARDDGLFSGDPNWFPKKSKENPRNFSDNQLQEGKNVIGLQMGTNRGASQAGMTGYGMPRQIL
# Chain of UniProt P52888 (P52888 whole entry, looked up): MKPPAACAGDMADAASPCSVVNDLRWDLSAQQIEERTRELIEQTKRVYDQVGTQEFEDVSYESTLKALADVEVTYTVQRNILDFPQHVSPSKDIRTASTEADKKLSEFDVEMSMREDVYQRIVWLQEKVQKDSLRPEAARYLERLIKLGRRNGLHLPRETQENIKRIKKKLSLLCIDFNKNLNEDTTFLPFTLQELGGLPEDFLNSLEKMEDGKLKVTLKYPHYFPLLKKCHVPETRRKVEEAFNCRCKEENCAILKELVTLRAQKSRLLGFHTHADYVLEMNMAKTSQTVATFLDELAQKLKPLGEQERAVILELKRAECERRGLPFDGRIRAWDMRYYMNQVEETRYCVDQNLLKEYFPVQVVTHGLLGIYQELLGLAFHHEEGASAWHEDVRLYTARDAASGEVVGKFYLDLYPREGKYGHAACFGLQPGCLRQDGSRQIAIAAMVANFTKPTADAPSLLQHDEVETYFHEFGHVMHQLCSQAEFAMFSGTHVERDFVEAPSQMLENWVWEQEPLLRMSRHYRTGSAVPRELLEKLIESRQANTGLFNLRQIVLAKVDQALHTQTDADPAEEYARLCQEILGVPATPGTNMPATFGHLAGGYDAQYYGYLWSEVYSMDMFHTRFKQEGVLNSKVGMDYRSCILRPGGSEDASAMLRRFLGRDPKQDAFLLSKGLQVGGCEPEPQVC
# Chain of UniProt Q9Y490 (Q9Y490 whole entry, looked up): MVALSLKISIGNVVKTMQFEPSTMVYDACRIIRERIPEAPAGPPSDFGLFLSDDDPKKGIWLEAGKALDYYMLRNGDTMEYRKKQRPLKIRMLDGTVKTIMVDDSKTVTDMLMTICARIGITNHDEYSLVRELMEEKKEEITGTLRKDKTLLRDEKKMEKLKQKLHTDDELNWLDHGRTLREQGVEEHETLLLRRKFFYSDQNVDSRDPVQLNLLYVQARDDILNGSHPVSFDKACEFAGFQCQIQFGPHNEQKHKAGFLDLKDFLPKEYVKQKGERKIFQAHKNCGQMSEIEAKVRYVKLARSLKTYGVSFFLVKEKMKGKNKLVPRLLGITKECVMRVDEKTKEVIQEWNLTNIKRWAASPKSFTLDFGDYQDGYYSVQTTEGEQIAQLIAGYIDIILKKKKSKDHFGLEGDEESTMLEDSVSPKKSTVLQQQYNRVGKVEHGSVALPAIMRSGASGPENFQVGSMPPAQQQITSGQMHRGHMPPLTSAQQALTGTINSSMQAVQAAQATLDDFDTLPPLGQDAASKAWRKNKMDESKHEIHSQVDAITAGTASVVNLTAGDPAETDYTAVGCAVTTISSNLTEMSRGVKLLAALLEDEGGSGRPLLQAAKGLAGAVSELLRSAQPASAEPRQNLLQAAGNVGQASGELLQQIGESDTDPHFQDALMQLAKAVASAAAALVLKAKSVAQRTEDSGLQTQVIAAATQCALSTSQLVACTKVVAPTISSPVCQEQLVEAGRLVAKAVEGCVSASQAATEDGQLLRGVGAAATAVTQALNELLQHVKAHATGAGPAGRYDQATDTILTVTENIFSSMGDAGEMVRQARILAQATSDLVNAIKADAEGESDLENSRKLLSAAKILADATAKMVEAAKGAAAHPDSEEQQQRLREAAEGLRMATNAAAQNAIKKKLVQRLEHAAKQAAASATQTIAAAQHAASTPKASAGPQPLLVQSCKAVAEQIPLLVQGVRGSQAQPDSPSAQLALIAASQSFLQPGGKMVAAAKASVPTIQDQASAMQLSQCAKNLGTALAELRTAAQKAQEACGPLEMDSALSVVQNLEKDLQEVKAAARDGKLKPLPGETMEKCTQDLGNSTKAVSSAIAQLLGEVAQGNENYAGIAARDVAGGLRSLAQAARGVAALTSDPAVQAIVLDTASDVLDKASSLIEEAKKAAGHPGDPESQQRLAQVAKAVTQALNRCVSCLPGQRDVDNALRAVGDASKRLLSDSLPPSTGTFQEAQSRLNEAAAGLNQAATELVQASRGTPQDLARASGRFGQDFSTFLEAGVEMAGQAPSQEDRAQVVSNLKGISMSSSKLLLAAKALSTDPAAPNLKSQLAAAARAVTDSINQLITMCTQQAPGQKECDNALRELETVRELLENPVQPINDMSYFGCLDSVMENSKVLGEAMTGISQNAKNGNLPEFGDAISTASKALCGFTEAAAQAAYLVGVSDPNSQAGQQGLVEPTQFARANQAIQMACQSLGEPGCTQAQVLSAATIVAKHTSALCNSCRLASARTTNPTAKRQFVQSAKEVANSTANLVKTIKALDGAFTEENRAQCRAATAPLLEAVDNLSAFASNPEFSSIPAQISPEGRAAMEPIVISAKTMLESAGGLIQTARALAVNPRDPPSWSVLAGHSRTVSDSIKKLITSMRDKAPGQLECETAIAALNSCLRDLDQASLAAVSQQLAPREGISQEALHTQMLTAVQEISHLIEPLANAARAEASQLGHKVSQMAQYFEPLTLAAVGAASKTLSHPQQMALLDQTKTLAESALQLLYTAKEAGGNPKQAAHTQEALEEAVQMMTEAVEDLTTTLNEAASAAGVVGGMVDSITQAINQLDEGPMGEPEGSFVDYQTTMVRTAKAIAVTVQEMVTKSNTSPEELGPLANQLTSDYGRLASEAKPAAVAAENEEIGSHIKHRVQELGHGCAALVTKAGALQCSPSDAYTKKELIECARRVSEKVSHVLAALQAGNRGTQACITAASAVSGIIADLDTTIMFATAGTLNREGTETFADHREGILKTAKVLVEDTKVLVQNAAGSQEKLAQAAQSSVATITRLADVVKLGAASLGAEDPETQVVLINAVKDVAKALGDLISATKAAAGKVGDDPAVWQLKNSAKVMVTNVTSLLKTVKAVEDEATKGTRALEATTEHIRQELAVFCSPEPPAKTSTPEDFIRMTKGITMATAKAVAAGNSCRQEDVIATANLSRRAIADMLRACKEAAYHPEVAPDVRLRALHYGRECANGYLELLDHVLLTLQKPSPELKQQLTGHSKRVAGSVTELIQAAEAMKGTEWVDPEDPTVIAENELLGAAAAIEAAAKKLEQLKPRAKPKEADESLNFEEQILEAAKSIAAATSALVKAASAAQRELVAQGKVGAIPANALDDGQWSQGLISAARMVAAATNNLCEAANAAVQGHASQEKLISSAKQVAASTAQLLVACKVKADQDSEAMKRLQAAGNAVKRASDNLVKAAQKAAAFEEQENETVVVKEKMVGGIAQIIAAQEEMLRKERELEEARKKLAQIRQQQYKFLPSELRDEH
# Chain of UniProt P49842 (P49842 whole entry): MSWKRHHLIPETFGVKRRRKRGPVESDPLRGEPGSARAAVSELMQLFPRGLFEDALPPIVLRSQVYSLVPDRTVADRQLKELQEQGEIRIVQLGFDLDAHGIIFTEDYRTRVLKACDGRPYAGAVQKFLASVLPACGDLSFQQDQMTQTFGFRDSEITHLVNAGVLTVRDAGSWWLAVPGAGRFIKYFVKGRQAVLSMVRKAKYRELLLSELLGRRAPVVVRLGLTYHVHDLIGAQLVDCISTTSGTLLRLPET
Target,probe-labelled cysteine peptide fold change (10 µM),probe-labelled cysteine peptide fold change (50 µM)
TRIM56_Q9BRZ2_21_VSHGSSPSLLEALSSDFLACK (UniProt Q9BRZ2),0.674,-0.0675
TANGO6_Q9C0B7_537_AVPSLHSLCQFR (UniProt Q9C0B7),0.0851,0.453
TRAPPC6A_O75865_124_FLAFTCGLLR (UniProt O75865),-0.0576,0.16
TLN1_Q9Y490_1353_AVTDSINQLITMCTQQAPGQK (UniProt Q9Y490),-0.0261,-0.0102
SUGT1_Q9Y2Z0_88_GICEYHEK (UniProt Q9Y2Z0),-0.0375,0.0208
TAGLN2_P37802_63_DGTVLCELINALYPEGQAPVK (UniProt P37802),-0.0876,-0.171
TADA2B_Q86TJ2_359_VLCSSLNLSPAR (UniProt Q86TJ2),-0.00316,0.0232
TOE1_Q96GM8_80_SLLNQCIEER (UniProt Q96GM8),-0.275,-1.19
TRIM28_Q13263_221+224_HEPLVLFCESCDTLTCR (UniProt Q13263),-0.0953,-0.162
TPP2_P29144_28_ETGAASFLCR (UniProt P29144),-0.0353,0.0865
TCIRG1_Q13488_58_CEELEK<|>HOOK3_Q86VS8_272_CEELEK (UniProt Q86VS8+Q13488),-0.105,-0.049
STAU2_Q9NUL3_11_TAMCLVNELAR (UniProt Q9NUL3),-0.112,-0.0959
TPP2_P29144_197_KYSDPGPVYDCLVWHDGEVWR (UniProt P29144),-0.249,-0.173
TIPRL_O75663_87_VACAEEWQESR (UniProt O75663),-0.00126,-0.142
STAG2_Q8N3U4_632_HTDTDVLEACSK (UniProt Q8N3U4),0.0979,0.0641
THBS1_P07996_406_SCDSLNNR (UniProt P07996),0.599,0.541
TONSL_Q96HA7_1248_EGCALAHLTLSANHLGDK (UniProt Q96HA7),0.0454,-0.0809
STK25_O00506_357_SQCLSTLVRPVFGELK (UniProt O00506),0.0231,0.0985
THOC2_Q8NI27_28_GEFLHLCR (UniProt Q8NI27),-0.0107,-0.00493
STARD3_Q14849_291_TFLPCPAELVYQEVILQPER (UniProt Q14849),0.749,-0.0598

Target,probe-labelled cysteine peptide fold change (10 µM),probe-labelled cysteine peptide fold change (50 µM)
SRPK1_Q96SB4_647_RATAAECLR (UniProt Q96SB4),0.591,0.4
TBL2_Q9Y4P3_375_VHGECIANLSFDITGR (UniProt Q9Y4P3),0.00796,-0.148
TIMM10B_Q9Y5J6_52_ALDAEEEACLHSCAGK (UniProt Q9Y5J6),0.0215,0.149
STXBP3_O00186_557_SCEVIIGSTHVLTPK (UniProt O00186),0.265,0.115
STK10_O94804_138_GLTEPQIQVVCR (UniProt O94804),0.0814,0.136
TAF10_Q12962_174_FISDIANDALQHCK (UniProt Q12962),-0.359,-0.583
TMF1_P82094_518_VQLACK (UniProt P82094),0.133,0.0379
TRAFD1_O14545_119_TELCGNCGR (UniProt O14545),0.47,0.589
SRPK1_Q96SB4_647_ATAAECLR (UniProt Q96SB4),-0.12,-0.0939
THOP1_P52888_427_YGHAACFGLQPGCLR (UniProt P52888),0.0447,-0.0427
SUPT6H_Q7KZ85_1435_YYQDCSGGDRK (UniProt Q7KZ85),-0.0915,-0.00252
TKT_P29401_41+42_ISSIQATTAAGSGHPTSCCSAAEIMAVLFFHTMR (UniProt P29401),0.0318,-0.488
SRPRB_Q9Y5M8_179_NTPSFLIACNK (UniProt Q9Y5M8),0.000261,0.108
TELO2_Q9Y4R8_813_SWLADVAEKDPDEDCR (UniProt Q9Y4R8),0.0749,0.233
STK19_P49842_354_LGLTYHVHDLIGAQLVDCISTTSGTLLR (UniProt P49842),0.00174,-0.0024
SRPRB_Q9Y5M8_246_EFEFSQLPLKVEFLECSAK (UniProt Q9Y5M8),-0.563,-0.365
TBL3_Q12788_511_LWALPQCQLLGVFSGHR (UniProt Q12788),-0.306,0.0833
THAP12_O43422_644_SDLPNPDTLSAELHCWR (UniProt O43422),0.204,0.0702
TELO2_Q9Y4R8_367_AVLICLAQLGEPELR (UniProt Q9Y4R8),0.000677,-0.124

# From the supplement of paper PMC12067093, “Discovery and optimisation of a covalent ligand for TRIM25 and its application to targeted protein ubiquitination” (Chemical Science, 2025)
